# The list shows a part of the results.
# B1: Banana lectin (Musa acuminata) (protein)
# chain: MNGAIKVGAHGGNGGSAFDMGPAYRIISVKIFSGDVVDGVDVTFTYYGKTETRHYGGSGGTPHEIVLQEGEYLVGMAGEVANYHGAVVLGKLGFSTNKKAYGPFGNTGGTPFSLPIAAGKISGFFGRGGKFLDAIGVYLEPLEHHHHHH
# Columns and labels:
# Experiment in all cases: glycan array binding signal (z-score within array); higher = stronger binding
# Details in all cases: glycan notation: IUPAC condensed, linker removed; mutation: W10H
# [1] = target: Gal(b1-3)GlcNAc(b1-6)GalNAc
# Method in brief: (§1)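 Glycan array data were curated from 3228 arrays in the Consortium for Functional Glycomics database and kept only where the protein sequence was available. Glycan names were converted to IUPAC-condensed notation, and columns mapping to the same glycan were averaged. The binding signal is a within-array Z-score, averaged across arrays of the same protein sequence at different concentrations or buffers and across linkers. Negative Z-scores can be read as non-binding.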
# [2] = target: Gal(b1-3)GlcNAc(b1-6)[Gal(b1-3)]GalNAc
# Method in brief: as §1
# Gal(b1-3)GlcNAc6S = target: Gal(b1-3)GlcNAc6S
# Method in brief: as §1
# [3] = target: Gal(b1-3)[Fuc(a1-4)]GlcNAc
# Method in brief: as §1
# [4] = target: Gal(b1-3)[Fuc(a1-4)]GlcNAc(b1-2)Man
# Method in brief: as §1
# [5] = target: Gal(b1-3)[Fuc(a1-4)]GlcNAc(b1-2)Man(a1-3)[Gal(b1-3)[Fuc(a1-4)]GlcNAc(b1-2)Man(a1-6)]Man(b1-4)GlcNAc(b1-4)[Fuc(a1-6)]GlcNAc
# Method in brief: as §1
# [6] = target: Gal(b1-3)[Fuc(a1-4)]GlcNAc(b1-3)Gal(b1-3)[Fuc(a1-4)]GlcNAc
# Method in brief: as §1
# [7] = target: Gal(b1-3)[Fuc(a1-4)]GlcNAc(b1-3)Gal(b1-4)[Fuc(a1-3)]GlcNAc
# Method in brief: as §1
# [8] = target: Gal(b1-3)[Fuc(a1-4)]GlcNAc(b1-6)GalNAc
# Method in brief: as §1
# [9] = target: Gal(b1-3)[GlcNAc(b1-6)]GalNAc
# Method in brief: as §1
# [10] = target: Gal(b1-3)[Neu5Ac(a2-6)]GalNAc
# Method in brief: as §1
# [11] = target: Gal(b1-3)[Neu5Ac(a2-6)]GlcNAc(b1-4)Gal(b1-4)Glc
# Method in brief: as §1
# [12] = target: Gal(b1-3)[Neu5Ac(b2-6)]GalNAc
# Method in brief: as §1
# Gal(b1-4)Gal = target: Gal(b1-4)Gal
# Method in brief: as §1
# [13] = target: Gal(b1-4)GalNAc(a1-3)[Fuc(a1-2)]Gal(b1-4)GlcNAc
# Method in brief: as §1
# [14] = target: Gal(b1-4)GalNAc(b1-3)[Fuc(a1-2)]Gal(b1-4)GlcNAc
# Method in brief: as §1
# Gal(b1-4)Glc = target: Gal(b1-4)Glc
# Method in brief: as §1
# Gal(b1-4)Glc6S = target: Gal(b1-4)Glc6S
# Method in brief: as §1
# Gal(b1-4)GlcNAc = target: Gal(b1-4)GlcNAc
# Method in brief: as §1
# [15] = target: Gal(b1-4)GlcNAc(a1-6)Gal(b1-4)GlcNAc
# Method in brief: as §1
# Gal(b1-4)GlcNAc(b1-2)Man = target: Gal(b1-4)GlcNAc(b1-2)Man
# Method in brief: as §1
# [16] = target: Gal(b1-4)GlcNAc(b1-2)Man(a1-3)Man(b1-4)GlcNAc(b1-4)GlcNAc
# Method in brief: as §1
# [17] = target: Gal(b1-4)GlcNAc(b1-2)Man(a1-3)[Gal(b1-4)GlcNAc(b1-2)Man(a1-6)]Man(b1-4)GlcNAc(b1-4)GlcNAc
# Method in brief: as §1
# [18] = target: Gal(b1-4)GlcNAc(b1-2)Man(a1-3)[Gal(b1-4)GlcNAc(b1-2)Man(a1-6)]Man(b1-4)GlcNAc(b1-4)[Fuc(a1-6)]GlcNAc
# Method in brief: as §1
# [19] = target: Gal(b1-4)GlcNAc(b1-2)Man(a1-3)[Gal(b1-4)GlcNAc(b1-2)Man(a1-6)][Gal(b1-4)GlcNAc(b1-4)]Man(b1-4)GlcNAc(b1-4)[Fuc(a1-6)]GlcNAc
# Method in brief: as §1
# [20] = target: Gal(b1-4)GlcNAc(b1-2)Man(a1-3)[Gal(b1-4)GlcNAc(b1-2)Man(a1-6)][GlcNAc(b1-4)]Man(b1-4)GlcNAc(b1-4)[Fuc(a1-6)]GlcNAc
# Method in brief: as §1
# [21] = target: Gal(b1-4)GlcNAc(b1-2)Man(a1-3)[GlcNAc(b1-2)Man(a1-6)]Man(b1-4)GlcNAc(b1-4)GlcNAc
# Method in brief: as §1
# [22] = target: Gal(b1-4)GlcNAc(b1-2)Man(a1-3)[GlcNAc(b1-4)][Gal(b1-4)GlcNAc(b1-2)Man(a1-6)]Man(b1-4)GlcNAc(b1-4)GlcNAc
# Method in brief: as §1
# [23] = target: Gal(b1-4)GlcNAc(b1-2)Man(a1-3)[Man(a1-6)]Man(b1-4)GlcNAc(b1-4)GlcNAc
# Method in brief: as §1
# [24] = target: Gal(b1-4)GlcNAc(b1-2)Man(a1-6)Man(b1-4)GlcNAc(b1-4)GlcNAc
# Method in brief: as §1
# [25] = target: Gal(b1-4)GlcNAc(b1-2)Man(a1-6)[GlcNAc(b1-2)Man(a1-3)]Man(b1-4)GlcNAc(b1-4)GlcNAc
# Method in brief: as §1
# [26] = target: Gal(b1-4)GlcNAc(b1-2)Man(a1-6)[Man(a1-3)]Man(b1-4)GlcNAc(b1-4)GlcNAc
# Method in brief: as §1
# [27] = target: Gal(b1-4)GlcNAc(b1-2)[Gal(b1-4)GlcNAc(b1-4)]Man(a1-3)[Gal(b1-4)GlcNAc(b1-2)Man(a1-6)]Man(b1-4)GlcNAc(b1-4)GlcNAc
# Method in brief: as §1
# [28] = target: Gal(b1-4)GlcNAc(b1-2)[Gal(b1-4)GlcNAc(b1-4)]Man(a1-3)[Gal(b1-4)GlcNAc(b1-2)[Gal(b1-4)GlcNAc(b1-6)]Man(a1-6)]Man(b1-4)GlcNAc(b1-4)GlcNAc
# Method in brief: as §1
# [29] = target: Gal(b1-4)GlcNAc(b1-2)[Gal(b1-4)GlcNAc(b1-4)]Man(a1-3)[GlcNAc(b1-4)][Gal(b1-4)GlcNAc(b1-2)Man(a1-6)]Man(b1-4)GlcNAc(b1-4)GlcNAc
# Method in brief: as §1
# [30] = target: Gal(b1-4)GlcNAc(b1-2)[Gal(b1-4)GlcNAc(b1-4)]Man(a1-3)[GlcNAc(b1-4)][Gal(b1-4)GlcNAc(b1-2)[Gal(b1-4)GlcNAc(b1-6)]Man(a1-6)]Man(b1-4)GlcNAc(b1-4)GlcNAc
# Method in brief: as §1
# [31] = target: Gal(b1-4)GlcNAc(b1-2)[Gal(b1-4)GlcNAc(b1-6)]Man(a1-6)[Gal(b1-4)GlcNAc(b1-2)Man(a1-3)]Man(b1-4)GlcNAc(b1-4)GlcNAc
# Method in brief: as §1
# [32] = target: Gal(b1-4)GlcNAc(b1-2)[Gal(b1-4)GlcNAc(b1-6)]Man(a1-6)[Gal(b1-4)GlcNAc(b1-2)Man(a1-3)]Man(b1-4)GlcNAc(b1-4)[Fuc(a1-6)]GlcNAc
# Method in brief: as §1
# [33] = target: Gal(b1-4)GlcNAc(b1-2)[Gal(b1-4)GlcNAc(b1-6)]Man(a1-6)[GlcNAc(b1-4)][Gal(b1-4)GlcNAc(b1-2)Man(a1-3)]Man(b1-4)GlcNAc(b1-4)GlcNAc
# Method in brief: as §1
# [34] = target: Gal(b1-4)GlcNAc(b1-2)[Gal(b1-4)GlcNAc(b1-6)]Man(a1-6)[GlcNAc(b1-4)][Gal(b1-4)GlcNAc(b1-2)[Gal(b1-4)GlcNAc(b1-4)]Man(a1-3)]Man(b1-4)GlcNAc(b1-4)[Fuc(a1-6)]GlcNAc
# Method in brief: as §1
# [35] = target: Gal(b1-4)GlcNAc(b1-3)Gal(b1-3)GalNAc
# Method in brief: as §1
# [36] = target: Gal(b1-4)GlcNAc(b1-3)Gal(b1-3)GlcNAc
# Method in brief: as §1
# [37] = target: Gal(b1-4)GlcNAc(b1-3)Gal(b1-4)Glc
# Method in brief: as §1
# [38] = target: Gal(b1-4)GlcNAc(b1-3)Gal(b1-4)GlcNAc
# Method in brief: as §1
# [39] = target: Gal(b1-4)GlcNAc(b1-3)Gal(b1-4)GlcNAc(b1-2)Man(a1-3)[Gal(b1-4)GlcNAc(b1-3)Gal(b1-4)GlcNAc(b1-2)Man(a1-6)]Man(b1-4)GlcNAc(b1-4)GlcNAc
# Method in brief: as §1
binder,measurement,setting,value
B1,glycan array binding signal (z-score),[1],-0.167
same,glycan array binding signal (z-score),[2],-0.177
same,glycan array binding signal (z-score),Gal(b1-3)GlcNAc6S,-0.194
same,glycan array binding signal (z-score),[3],-0.14
same,glycan array binding signal (z-score),[4],-0.178
same,glycan array binding signal (z-score),[5],-0.166
same,glycan array binding signal (z-score),[6],-0.198
same,glycan array binding signal (z-score),[7],-0.173
same,glycan array binding signal (z-score),[8],-0.162
same,glycan array binding signal (z-score),[9],-0.157
same,glycan array binding signal (z-score),[10],-0.174
same,glycan array binding signal (z-score),[11],-0.135
same,glycan array binding signal (z-score),[12],-0.151
same,glycan array binding signal (z-score),Gal(b1-4)Gal,-0.131
same,glycan array binding signal (z-score),[13],-0.164
same,glycan array binding signal (z-score),[14],-0.159
same,glycan array binding signal (z-score),Gal(b1-4)Glc,-0.167
same,glycan array binding signal (z-score),Gal(b1-4)Glc6S,-0.147
same,glycan array binding signal (z-score),Gal(b1-4)GlcNAc,-0.164
same,glycan array binding signal (z-score),[15],-0.202
same,glycan array binding signal (z-score),Gal(b1-4)GlcNAc(b1-2)Man,-0.179
same,glycan array binding signal (z-score),[16],-0.126
same,glycan array binding signal (z-score),[17],-0.187
same,glycan array binding signal (z-score),[18],-0.164
same,glycan array binding signal (z-score),[19],-0.152
same,glycan array binding signal (z-score),[20],-0.156
same,glycan array binding signal (z-score),[21],-0.102
same,glycan array binding signal (z-score),[22],-0.172
same,glycan array binding signal (z-score),[23],-0.137
same,glycan array binding signal (z-score),[24],-0.181
same,glycan array binding signal (z-score),[25],-0.112
same,glycan array binding signal (z-score),[26],1.81
same,glycan array binding signal (z-score),[27],-0.166
same,glycan array binding signal (z-score),[28],-0.044
same,glycan array binding signal (z-score),[29],-0.159
same,glycan array binding signal (z-score),[30],-0.175
same,glycan array binding signal (z-score),[31],-0.111
same,glycan array binding signal (z-score),[32],-0.143
same,glycan array binding signal (z-score),[33],-0.204
same,glycan array binding signal (z-score),[34],-0.182
same,glycan array binding signal (z-score),[35],-0.184
same,glycan array binding signal (z-score),[36],-0.177
same,glycan array binding signal (z-score),[37],-0.13
same,glycan array binding signal (z-score),[38],-0.166
same,glycan array binding signal (z-score),[39],-0.132
